Measured values from ChEMBL document CHEMBL1201862, “PubChem BioAssay data set” (2004).

These compounds were tested on NCI-H322M (assay: NCI tumour cell line growth inhibition, 48 h).

Q: Cc1ccc(C)c(COCCOCn2c(=O)[nH]c(=O)c3cc(Br)ccc32)c1 was tested. Which GI50 did it give?
A: inactive: > 100 µM

Q: With Brc1sc(Br)c2c1[C@H](Br)C[C@@H]2Br as the compound, how does the GI50 read?
A: inactive: > 100 µM

Q: O=S(=O)(O)c1c(Cl)cc(O)c2ncccc12 was tested. Which GI50 did it give?
A: inactive: > 100 µM

Q: How did the GI50 turn out when O=c1[nH]n(CCc2ccccc2CCl)c2ccc([N+](=O)[O-])cc12 was run?
A: inactive: > 100 µM

Q: With CC1(C)OC2[C@@H](CO[C@@]3([C@@H](O)CCO)OC(C)(C)O[C@@H]23)O1 (some centres undefined) as the compound, how does the GI50 read?
A: inactive: > 100 µM

Q: Which GI50 does the source give for CCCCCCCCCCCCCC(=O)OC(/C=C/C(C)C)C(O)C(O)C(OC)C(=O)NC1CCCCNC1=O (centres undefined) here?
A: inactive: 2.61 µM

Q: How did the GI50 turn out when [N-]=[N+]=NC(CCl)c1cn([C@H]2C[C@H](O)[C@@H](CO)O2)c(=O)[nH]c1=O (some centres undefined) was run?
A: inactive: > 100 µM

Q: Which GI50 does the source give for c1ccc(-c2cc(-c3cc(-c4ccccn4)[nH]n3)n[nH]2)nc1 here?
A: inactive: 50.8 µM

Q: N#CC1(Cc2ccccc2[N+](=O)[O-])c2ccccc2C2C(N1C(=O)c1ccccc1)C2(Cl)Cl (centres undefined) was tested. Which GI50 did it give?
A: inactive: > 100 µM

Q: Cc1ccnc2nc(-c3ccc(F)cc3)cc(O)c12 was tested. Which GI50 did it give?
A: inactive: 58.2 µM

Q: How did the GI50 turn out when O=C1Nc2ccccc2/C1=c1\[nH]c(=O)/c(=C\c2ccc(OCc3ccccc3)cn2)[nH]c1=O was run?
A: inactive: > 100 µM

Q: COc1ccc(CC(C)N)cc1 (centres undefined) [PARA-METHOXYAMPHETAMINE] was tested. Which GI50 did it give?
A: inactive: > 100 µM

Q: Which GI50 does the source give for CC(=O)Oc1cc(C)c(OC(C)=O)c2c1[C@H]1CC[C@]3(C)[C@@H](OC(C)=O)CC[C@H]3[C@@H]1CC2 here?
A: inactive: 15.4 µM

Q: Which GI50 does the source give for CC(C)c1ccc(C(c2c(O)oc3ccccc3c2=O)c2c(O)oc3ccccc3c2=O)cc1 here?
A: inactive: 19.1 µM

Q: How did the GI50 turn out when CC(=O)C(C(C)=O)[C@@H]1OC(C)(C)O[C@@H]1[C@H]1COC(C)(C)O1 was run?
A: inactive: 35.4 µM

Q: How did the GI50 turn out when CN1NC(c2ccccc2)=C(C#N)C(=O)CC1c1ccccc1Cl (centres undefined) was run?
A: inactive: > 100 µM

Q: CCCCCCCN1C(=O)C(O)(c2ccc(C3(O)C(=O)N(CCCCCCC)c4ccccc43)s2)c2ccccc21 (centres undefined) was tested. Which GI50 did it give?
A: inactive: 2.26 µM

Q: For COc1ccccc1NC(=O)C1=C(C)NC(C)=C(C(=O)Nc2ccccc2OC)C1c1ccco1, which GI50 is on record?
A: inactive: 10.9 µM

Q: Which GI50 does the source give for O=C(O)c1nc2cc(C(F)(F)F)ccc2nc1Nc1ccc(F)cc1 here?
A: inactive: 29.2 µM

Q: Which GI50 does the source give for CC1S(=O)(=O)OCCOS1(=O)=O here?
A: inactive: > 100 µM

Q: For CC(C)(C)CC(C)(C)c1cc2c(O)c(c1)Cc1cc(C(C)(C)CC(C)(C)C)cc(c1O)Cc1cc(C(C)(C)CC(C)(C)C)cc(c1O)Cc1cc(C(C)(C)CC(C)(C)C)cc(c1O)Cc1cc(C(C)(C)CC(C)(C)C)cc(c1O)Cc1cc(C(C)(C)CC(C)(C)C)cc(c1O)C2, which GI50 is on record?
A: inactive: > 100 µM

Q: With CC(CO)(CO)/N=C/c1cc(I)cc(I)c1O as the compound, how does the GI50 read?
A: inactive: 19.5 µM

Q: O=C(O)CC1OCC=C2C[N+]3([O-])CCC45c6ccccc6NC4C1C2CC53 (centres undefined) was tested. Which GI50 did it give?
A: inactive: > 100 µM

Q: How did the GI50 turn out when CCCN(CCCCC(NC(C)=O)C(=O)NCc1ccccc1)C(=O)N(CCCl)N=O (centres undefined) was run?
A: inactive: > 100 µM

Q: COc1cc2ncnc(Nc3cccc(Cl)c3)c2cc1OC [TYRPHOSTIN AG-1478] was tested. Which GI50 did it give?
A: active: 0.327 µM

Q: With COc1cc2c(c3c1c(=O)c1ccccc1n3C)C=CC1(CCCCC1)O2 as the compound, how does the GI50 read?
A: inactive: 2.15 µM

Q: C[C@H](CCc1nc(C#N)c(N)o1)[C@H]1CC[C@H]2[C@@H]3CCC4C[C@@H](O)CC[C@]4(C)[C@H]3C[C@@H](O)[C@]12C (some centres undefined) was tested. Which GI50 did it give?
A: inactive: 17.3 µM

Q: How did the GI50 turn out when Cc1c(F)c(NC(=O)CN(C)C)c2c(=O)cc(-c3ccc(NC(=O)CN(C)C)c(F)c3)oc2c1F was run?
A: inactive: 16.1 µM

Q: Which GI50 does the source give for CN(C)CCOC1(Cc2ccc(Cl)cc2Cl)CCC(C(C)(C)C)CC1 (centres undefined) here?
A: inactive: 1.75 µM

Q: For COCOc1cc(OC)ccc1C=O, which GI50 is on record?
A: inactive: 47 µM

Q: CCOC(=O)C1=C(O)C(=O)c2ccsc2C1=O was tested. Which GI50 did it give?
A: inactive: > 100 µM

Q: How did the GI50 turn out when Nc1nc(SCCc2ccccc2)nc2nc3c(c(-c4ccccc4)c12)CCCC3 was run?
A: inactive: > 100 µM

Q: Cc1cc(O)cc2c1c(=O)c1ccccc1n2C was tested. Which GI50 did it give?
A: inactive: > 100 µM

Q: How did the GI50 turn out when CCOC12SC(Nc3ccc(C)cc3)=NN1C(=S)N(C)N=C2C (centres undefined) was run?
A: inactive: > 100 µM

Q: How did the GI50 turn out when CC(=O)OCC12C(OC(C)=O)C[C@@H](C)C3(CC(c4ccoc4)OC3=O)C1CCC(O)C21CO1 (some centres undefined) was run?
A: inactive: > 100 µM

Q: COc1ccc(/C=C/c2nnc(S)[nH]2)cc1 was tested. Which GI50 did it give?
A: inactive: > 100 µM

Q: With Cc1sc(Nc2ccccc2[N+](=O)[O-])c(C#N)c1C as the compound, how does the GI50 read?
A: inactive: 14.4 µM

Q: How did the GI50 turn out when CCCCC1NC=Nc2c1ccc1c2[nH]c2ccccc21 (centres undefined) was run?
A: inactive: 2.22 µM

Q: With Oc1nc(-c2cccc(F)c2)nc2ccccc12 as the compound, how does the GI50 read?
A: inactive: 43.2 µM

Q: O=C(c1ccc(Cl)cc1)C1OC12C(=O)Nc1c(Cl)cc(Cl)cc12 (centres undefined) was tested. Which GI50 did it give?
A: inactive: 54 µM

Q: With CN(Cc1cnc2nc(N)nc(N)c2n1)c1ccc(C(=O)NCCCC(=O)O)cc1 as the compound, how does the GI50 read?
A: inactive: 63.5 µM

Q: O=C(Nc1cc(Cl)c(Cl)cc1Cl)C(=O)C(C(=O)c1ccc(Cl)c(Cl)c1)C1OC(=O)c2ccccc21 (centres undefined) was tested. Which GI50 did it give?
A: inactive: 19.2 µM

Q: With C=C1C(=O)O[C@@H]2/C=C(/C)[C@@H](OC(C)=O)C/C=C(\C)C(O)[C@@H](OC(=O)/C(C)=C\C)C12 (some centres undefined) as the compound, how does the GI50 read?
A: inactive: 54.2 µM

Q: How did the GI50 turn out when O=C1Oc2ccccc2C1C/C(=N\Nc1ccccc1)c1ccccc1O (centres undefined) was run?
A: inactive: 21.1 µM

Q: How did the GI50 turn out when CCN(CC)CCCn1c(=O)c2cccnc2n2c3c(=O)n(C)c(=O)n(C)c3nc12 was run?
A: inactive: > 100 µM

Q: COc1ccc(-c2cc(O)c3cc(C)cnc3n2)cc1 was tested. Which GI50 did it give?
A: inactive: > 100 µM

Q: Which GI50 does the source give for CCN(CC)C(=S)SS(=O)(=O)c1ccc(C)cc1 here?
A: inactive: > 100 µM

Q: CCOc1ccccc1N1C(=O)C(=O)C(c2nc3ccccc3o2)C(=O)C1=O was tested. Which GI50 did it give?
A: inactive: 78.3 µM

Q: Which GI50 does the source give for COC(=O)Nc1nc(=O)c2cc(OC)c(OC)cc2[nH]1 here?
A: inactive: 56.9 µM

Q: How did the GI50 turn out when CCOC(=O)CNC(=O)c1nc[nH]c1/N=N/N(C)C was run?
A: inactive: > 100 µM

Q: Which GI50 does the source give for COc1cc(C(=O)CBr)c(OC)cc1C here?
A: inactive: > 100 µM

Q: CC/C=N\N1C(N)=C(C#N)C(C#N)(C#N)C1CC (centres undefined) was tested. Which GI50 did it give?
A: inactive: > 100 µM

Q: How did the GI50 turn out when COc1cccc2c(=O)c3c(n(C)c12)OC(C(C)C)C3 (centres undefined) was run?
A: inactive: > 100 µM

Q: For O=C/C1=C/C2=Cc3ccccc3C=C(/C=C(/C=O)C1)C2, which GI50 is on record?
A: inactive: > 100 µM

Q: CC(=O)Nc1ccc(Cl)c(Cl)c1 was tested. Which GI50 did it give?
A: inactive: > 100 µM

Q: How did the GI50 turn out when O=C1c2cccc3cc([N+](=O)[O-])cc(c23)C(=O)N1Nc1ccc([N+](=O)[O-])cc1[N+](=O)[O-] was run?
A: inactive: 47.6 µM

Q: Clc1ccc(Cc2nc3ccccc3nc2-c2cccc(Cl)c2)cc1 was tested. Which GI50 did it give?
A: inactive: 14.6 µM

Q: How did the GI50 turn out when CNC(=O)CN1CC(=O)N(C)C(=O)C1 was run?
A: inactive: > 100 µM

Q: CC(=O)NNc1nc(C)c(C(/C=C/c2ccccc2O)=N/N=C(N)N)s1 was tested. Which GI50 did it give?
A: inactive: > 100 µM

Q: Which GI50 does the source give for CN(C)C(=O)Oc1ccc[n+](C)c1 [PYRIDOSTIGMINE BROMIDE] here?
A: inactive: > 100 µM

Q: With O=C1CC(=O)NC(NN2C(=O)CSC2c2ccc(Cl)cc2)=N1 (centres undefined) as the compound, how does the GI50 read?
A: inactive: > 100 µM

Q: CN(CC1(CO)CCC1)c1cc(Cl)nc(N)n1 was tested. Which GI50 did it give?
A: inactive: > 100 µM

Q: C[C@@H]1C[C@](O)([C@@H](C)Cl)C(=O)O[C@@H]2CCN3CC=C(COC(=O)[C@]1(C)O)[C@H]23 was tested. Which GI50 did it give?
A: inactive: > 100 µM

Q: COC(=O)[C@H](Cc1ccccc1)NP(=O)(O)OCC1C=CC(n2cc(C)c(=O)[nH]c2=O)O1 (some centres undefined) was tested. Which GI50 did it give?
A: inactive: > 100 µM

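All cell lines were grown in 96-well plates and treated with compound for 48 hours. GI50: concentration for 50% inhibition of growth.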 Active and inactive are the calls of the source. No stated cut-off is given here; in the data, active = GI50 up to about 1.1 µM and inactive = higher.
